# In all, about 110,000 compounds were measured (“z-score”: median about -0.1, highest 2% from about 2 on). This is one part of the list. Active and inactive are the calls of the source.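 Rule for the calls: active = z-score in the third read window above 3 or below -3; inactive = the rest.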
# Target: Metabotropic glutamate receptor 8 (Rattus norvegicus) (UniProt P70579)
# Assay: mGluR8 Gi/Go-coupled signaling modulation – cell-based, rat, thallium flux, HTS, primary screen (AID 488969)
# Settings: HEK293 rat mGluR8, GIRK (G protein-gated inwardly rectifying potassium channel) thallium flux, FluoZin2; at 10 µM; stronger effect = higher value; submaximal glutamate (EC20) added with thallium
# Sequence of UniProt P70579 (P70579 whole entry, looked up): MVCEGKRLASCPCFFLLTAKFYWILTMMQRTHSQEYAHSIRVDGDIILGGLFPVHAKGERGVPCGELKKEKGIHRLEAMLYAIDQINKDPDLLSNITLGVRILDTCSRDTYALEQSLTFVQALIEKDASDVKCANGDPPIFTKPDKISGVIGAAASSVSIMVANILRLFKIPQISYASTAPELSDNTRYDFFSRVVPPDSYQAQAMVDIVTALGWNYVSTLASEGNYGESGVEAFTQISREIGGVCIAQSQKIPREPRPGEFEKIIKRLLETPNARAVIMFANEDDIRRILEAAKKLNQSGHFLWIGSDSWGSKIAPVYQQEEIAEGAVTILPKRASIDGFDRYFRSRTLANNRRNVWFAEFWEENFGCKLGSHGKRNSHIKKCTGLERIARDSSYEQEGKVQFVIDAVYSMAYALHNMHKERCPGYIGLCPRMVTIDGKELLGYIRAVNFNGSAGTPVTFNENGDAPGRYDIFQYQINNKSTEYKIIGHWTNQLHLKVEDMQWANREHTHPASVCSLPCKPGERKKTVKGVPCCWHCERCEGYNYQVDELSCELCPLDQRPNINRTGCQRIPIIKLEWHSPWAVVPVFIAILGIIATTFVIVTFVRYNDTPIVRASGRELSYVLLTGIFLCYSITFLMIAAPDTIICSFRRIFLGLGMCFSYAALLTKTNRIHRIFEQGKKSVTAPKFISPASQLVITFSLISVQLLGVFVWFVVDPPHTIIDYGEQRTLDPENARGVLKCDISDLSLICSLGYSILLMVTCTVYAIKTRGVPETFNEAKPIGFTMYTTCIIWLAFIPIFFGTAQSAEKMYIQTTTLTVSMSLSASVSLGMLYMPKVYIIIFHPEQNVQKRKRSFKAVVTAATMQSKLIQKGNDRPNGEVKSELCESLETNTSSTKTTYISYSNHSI
row,Structure (SMILES),z-score
1,O=C(Cn1cc(S(=O)(=O)Cc2ccccc2)c2ccccc21)Nc1ccccc1,-0.33
2,Cc1ccc(OCc2ccc(C(=O)Nc3nccs3)o2)cc1C,-0.198
3,O=C(O)c1ccc(COCC(F)(F)C(F)F)o1,-0.238
4,COCCn1c(SCC(=O)c2ccc3c(c2)OCCO3)nnc1-c1ccoc1C,-0.231
5,CCOC(=O)c1ccc(N2C(=O)CC(Nc3ccc(CCO)cc3)C2=O)cc1 (stereo not drawn),0.208
6,Cc1ccc(CCNC(=O)CS(=O)Cc2nc(-c3cccc(C)c3)oc2C)cc1 (stereo not drawn),-0.0168
7,CC(C)(C)OC(=O)N[C@@H](Cc1ccccc1)C(=O)N1CCC(C(=O)O)CC1,-0.0408
8,CCn1c(SCc2ccc(F)cc2)nnc1C1CCN(S(=O)(=O)c2ccc(OC)cc2)CC1,-0.188
9,COC(=O)NNC(=O)COc1ccc(Cl)cc1,-0.0892
10,O=[N+]([O-])c1ccc(Sc2ccc(Cl)c(Cl)c2)nc1,0.061
11,CCOC(=O)COc1cccc2c(=O)n(CC(=O)NCc3ccc4c(c3)OCO4)ccc12,-0.524
12,Cc1c(N2C(=O)CS/C2=N\N=C\c2ccc(Cl)cc2)c(=O)n(-c2ccccc2)n1C,-0.118
13,Cc1cnc(C(=O)N2CCN(S(=O)(=O)c3ccc4ccccc4c3)CC2)cn1,0.0546
14,CCOC(=O)C(Sc1cc(C)nc(N)n1)C(C)=O (stereo not drawn),0.561
15,Cc1ccc2[nH]c(=O)c(CN(Cc3ccc4c(c3)OCO4)Cc3nnnn3Cc3ccco3)cc2c1,-0.0233
16,O=C1OC(c2ccc(Cl)cc2)/C(=C(/O)c2ccccc2)C1=O (stereo not drawn),-1.24
17,CCOCCCNC(=O)C1CCCCN1S(=O)(=O)c1ccc(F)cc1 (stereo not drawn),-1.05
18,CCS(=O)CCSC(=N)N (stereo not drawn),-0.0992
19,O=C(CSc1nnc2sc3ccccc3n12)c1ccco1,-0.891
20,Cc1ccc2oc(-c3ccc(NC(=O)c4ccc5c(c4)OCO5)cc3)nc2c1,0.485
21,CCCc1cc(C(=O)Nc2ccccc2C(=O)OC)no1,0.159
22,O=C(c1ccc(Br)cc1)N1CCCC1,1
23,COc1ccc(CN2C(=O)c3ccccc3C2=O)cc1C(=O)OCC(=O)NC1CCCCC1,-0.536

row,Structure (SMILES),z-score
1,COc1ccc(NC(=O)c2sccc2C)c([N+](=O)[O-])c1,-0.01
2,Nc1nonc1C(=O)NCCNCc1cc(Br)ccc1OCc1ccc(F)cc1,0.587
3,COc1ccc(C2c3ccc4ccccc4c3Oc3ncn(Cc4ccco4)c(=N)c32)cc1OC (stereo not drawn),0.46
4,O=C1NC(=Nc2ccc(Cl)cc2)/C(=C/c2ccco2)S1,-0.268
5,CCc1nnc(SCCSc2nnc(CC)n2N)n1N,0.577
6,CN(C)S(=O)(=O)c1ccc(C(=O)Nc2nnc(-c3ccc4c(c3)CCCC4)o2)cc1,active: 5.8
7,O=C(CSCc1cccc(Br)c1)N=Nc1c(O)[nH]c2ccccc12,-0.113
8,O=c1cc(NCCO)c2ccccc2o1,0.452
9,O=C1N=C(N2CCOCC2)CS1,0.577
10,Cc1cc(CC(C)C)n(-c2nc3ccccc3c(=O)n2OCC(N)=O)n1,active: 3.83
11,Cc1ccc(N2CC(C(=O)NCc3cccs3)CC2=O)cc1C (stereo not drawn),0.365
12,CN(C)CCNC(=O)Cn1nc(C(F)F)cc1C1CC1,0.2
13,CCCn1c(=O)[nH]c(=O)c2c1nc(-c1ccc(OC(F)(F)C(F)C(F)(F)F)cc1)n2CCOC (stereo not drawn),-0.639
14,CCCC1=NN(C(=O)Cc2ccc(OC)cc2)C(O)(C(F)(F)F)C1 (stereo not drawn),-0.299
15,C=C(C)Cn1c(NCCOC)nc2c1c(=O)[nH]c(=O)n2C,-0.0876
16,O=S(=O)(c1ccc2ccccc2c1)N1CCN(C2Cc3ccccc3C2)CC1,-0.346
17,Cc1cc(=O)[nH]c(SCC(=O)Nc2ccc(Br)cc2)c1C#N,-0.679
18,Cc1c(C(=O)NCCc2ccccc2)oc2ccc(S(=O)(=O)N3CCC4(CC3)OCCO4)cc12,0.735
19,O=C(O)Cc1ccc(C(=O)c2ccccc2)s1,-0.252
20,CC(Nc1ccc(Cl)cc1)c1cc(Cl)ccc1O (stereo not drawn),-0.271
21,O=C(NNC(=O)c1cccc2ccccc12)c1ccc(-c2ccccc2)cc1,-0.146
22,CCCCn1c(SCC(=O)Nc2nc(C)cs2)nnc1-c1cccnc1,-1.06
23,CCCc1cc(-n2cnc3ccccc32)n2c(nc3ccccc32)c1C#N,-0.538

row,Structure (SMILES),z-score
1,O=S(=O)(Nc1c(S(=O)(=O)c2ccccc2)c2nc3ccccc3nc2n1C1CCCCC1)c1ccccc1,-1.31
2,COc1ccc(-c2ccc(=O)n(CC(=O)Nc3ccc(C(=O)NC4CC4)cc3)n2)cc1OC,0.564
3,CCCC(=O)NNC(=O)Nc1ccccc1,-0.149
4,CN(C)c1oc(-c2ccco2)nc1C#N,0.498
5,Cc1ccc2cc(CCNC(=O)C(C)C)c(=O)[nH]c2c1C,0.369
6,CCCCCn1c(SCCc2ccccc2)nc2c1c(=O)[nH]c(=O)n2C,0.478
7,Cc1cccc(NC(=S)NN2CCN(C)CC2)c1C,-0.00323
8,CC1CCN(C(=S)c2ccc(-c3ccc(Cl)cc3Cl)o2)CC1,-0.239
9,CCc1nc(N)c(C#N)c(-c2cccnc2)c1C,-0.116
10,COc1cccc(Nc2nnc(SCc3cc([N+](=O)[O-])cc4c3OCOC4)s2)c1,1.05
11,COC(=O)CN(C#N)c1nc(NC(C)C)nc(OC)n1,-0.142
12,CC(=O)c1ccc(NC2CC(O)C(O)CO2)cc1 (stereo not drawn),2.32
13,COC(=O)c1cc2sc(Cl)cc2n1CC(=O)Nc1ccc(OC)c(OC)c1OC,-0.254
14,O=C(CSc1nc(-c2ccccc2Cl)ns1)Nc1ccc2c(c1)OCO2,-0.0246
15,CO/N=C(/CNC(=O)c1ccc(F)cc1)c1ccc(Cl)cc1,-0.494
16,FC(F)(F)c1cccc(N/N=C/c2ccccc2)c1,-0.112
17,Cc1cc(C(=O)N2CCc3ccccc32)c2ccccc2n1,0.252
18,COc1ccc(OCCn2cc(/C(N)=N/O)c3ccccc32)cc1,-0.174
19,C/C(=N\NC(=O)c1ccc(CN2CCOCC2)cc1)c1cccc([N+](=O)[O-])c1,-0.388
20,CC(C)(C)C(=O)Oc1cc(N)n(S(=O)(=O)c2ccc(F)cc2)n1,-1.6
21,CCOC(=O)C1=C(C)NC(=O)NC1c1ccccc1OCc1c(F)cccc1Cl (stereo not drawn),-0.701
22,Oc1ccc(NC(=S)Nc2ccccc2)cc1,-0.14
23,CC(=O)c1cc(NC(=O)c2ccc(Cl)cc2)c(=O)oc1/C=C/N(C)C,-0.164

row,Structure (SMILES),z-score
1,c1ccc(CNc2ncnc3c2oc2ccccc23)nc1,0.503
2,CCc1nc(SCc2cc(Cl)ccc2OC)n[nH]1,0.561
3,CCOCCSc1nc2c(c(-c3cccs3)c1C#N)CC/C2=C/c1cccs1,-0.182
4,COc1ccc(C(=O)C/C(=C\C(=O)c2ccc(C)cc2)c2ccccc2)cc1,-0.243
5,COc1ccc(NC(=O)c2ccc(CNc3c(NC4CCCCC4)c(=O)c3=O)cc2)c(OC)c1,1.05
6,Cc1ccc(N2CC(C(=O)NCCCn3ccnc3)CC2=O)cc1 (stereo not drawn),-0.228
7,CCOC(=O)C1CSC(CC(=O)Nc2ccc(Cl)cc2)C(=O)N1 (stereo not drawn),-0.195
8,COc1ccc(N(CC(=O)NN=C2CCCC2)S(=O)(=O)c2ccccc2)cc1Cl,-0.806
9,CCOC(=O)c1ccc(NC(=O)CN2C(=O)CSCC2=O)cc1,-0.0441
10,O=C1CC(c2cc(Br)ccc2F)c2cc3c(cc2N1)CCC3 (stereo not drawn),-0.108
11,Cn1c2c(c(=O)n(C)c1=O)C(NS(=O)(=O)c1ccc(Cl)cc1)(C(F)(F)F)C(=O)N2 (stereo not drawn),-0.23
12,O=C(Nc1cccc(F)c1)NC1(C(=O)N2CCN3CCCC3C2)CCCCC1 (stereo not drawn),0.517
13,COc1ccccc1OCCSc1nc(N)cc(N)n1,0.247
14,Cc1cccc(C(=O)N[C@H](C(=O)Nc2nc(C)cs2)C(C)C)c1,-0.204
15,CCOC(=O)CNC(=O)C1c2ccccc2C(=O)N(c2ccc(OC)cc2)C1c1ccc(OC)cc1 (stereo not drawn),0.203
16,COc1ccc(Nc2nc(N)nc(CSc3nncn3C)n2)cc1,0.0648
17,Cc1ccc(-n2c(C)cc3c2CC(C)(C)CC3=O)cc1C,0.768
18,COCCCNCCOc1cc(C(C)C)ccc1C,1.96
19,COC(=O)CCn1nnc(-c2ccc(C)cc2)n1,-0.429
20,COC(=O)CNc1nc(C2CC2)nc2c1nnn2Cc1ccccc1Cl,-0.233
21,COc1ccc2c(c1)Cc1sc(NC(=O)c3cccs3)nc1-2,0.245
22,Cc1cccc(-n2c(-c3ccncc3)n[nH]c2=S)c1,-0.125
23,Clc1ccc(Sc2cc(Cl)c(-c3ccccc3)nn2)cc1,-1.2

row,Structure (SMILES),z-score
1,CCCC(=O)C1C(=O)CC(CC(C)SCC)CC1=O (stereo not drawn),0.82
2,Cc1cc(Br)cc(C)c1NC(=S)NC(=O)CC(C)C,-0.0455
3,Cn1nnnc1SCC(=O)NCCCc1ccccc1,0.96
4,CCCCOC(=O)n1c(SCC(=O)N(CC)CC)nc2ccccc21,-0.33
5,CC(=O)c1ccc(Oc2ccc(C(C)=O)cc2)cc1,-0.0838
6,COc1ccc(NS(=O)(=O)c2cc(NC(=O)CCSc3ccccc3)ccc2OC)cc1,-0.303
7,Cc1ccc(S(=O)(=O)Nc2ccccc2-c2ccccc2NS(=O)(=O)c2ccc(C)cc2)cc1,-0.159
8,CCOC(=O)NC1(Nc2ccc(C)cc2)Oc2ccccc2O1,-0.0164
9,Cc1nc2c(Cl)cc(Cl)cc2[nH]1,-0.18
10,COc1ccc(Cn2c(=O)[nH]c3cc(C(=O)NCc4ccc5c(c4)OCO5)ccc3c2=O)cc1,0.0407
11,CCn1c(SC(C)C(=O)OC)nnc1-c1c[nH]c2ccccc12 (stereo not drawn),-0.657
12,c1ccc2c(c1)OCC(c1csc3ncnc(N4CCCC4)c13)O2 (stereo not drawn),1.23
13,Cc1c(Br)c([N+](=O)[O-])nn1CC(=O)NCc1cccs1,-0.389
14,O=C(CNCC1CCCO1)N1CCN(S(=O)(=O)c2ccc3ccccc3c2)CC1 (stereo not drawn),-0.307
15,COc1ccc(-n2c(C)cc(=O)c3c2CC(C)(C)CC3=O)cc1,-0.746
16,CN1OC2C(=O)N(c3ccccc3)C(=O)C2C1c1ccc(F)cc1 (stereo not drawn),-0.0795
17,CCCC(=O)N1c2ccc(-c3csc(N)n3)cc2CC1C (stereo not drawn),0.0581
18,Cn1c(=O)nc2n(Cc3ccccc3)c3cccc(Cl)c3cc-2c1=O,-0.689
19,Nc1cccnc1Sc1ccc(Cl)cc1,-0.0974
20,NC(=O)c1c(NC(=O)C2CCCO2)sc2c1CCCC2 (stereo not drawn),-0.0325
21,O=C(CNC(=O)c1cccc(F)c1)N/N=C/c1cc(Br)ccc1OC(=O)/C=C/c1ccco1,2.46
